# Measurements published in the supplement of paper PMC8728848.
# This is one part of the list.
# B1: AT1G15820(2) (Arabidopsis thaliana), Q9LMQ2 (protein)
# chain: MAMAVSGAVLSGLGSSFLTGGKRGATALASGVGTGAQRVGRKTLIVAAAAAQPKKSWIPAVKGGGNFLDPEWLDGSLPGDFGFDPLGLGKDPAFLKWYREAELIHGRWAMAAVLGIFVGQAWSGVAWFEAGAQPDAIAPFSFGSLLGTQLLLMGWVESKRWVDFFNPDSQSVEWATPWSKTAENFANYTGDQGYPGGRFFDPLGLAGKNRDGVYEPDFEKLERLKLAEIKHSRLAMVAMLIFYFEAGQGKTPLGALGL
# What was measured:
# Experiment in all cases: glycan array binding signal (z-score within array); higher = stronger binding
# Settings in all cases: glycan notation: IUPAC condensed, linker removed
# Gal(b1-3)GalNAc(b1-3)Gal = target: Gal(b1-3)GalNAc(b1-3)Gal
# Summary of the method: (§1)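 Columns mapping to the same glycan were averaged after glycan names were converted to IUPAC-condensed notation. The data come from 3228 arrays in the Consortium for Functional Glycomics database, limited to those with an available protein sequence. Binding is reported as a within-array Z-score averaged across arrays of one protein sequence and across linkers.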
# [1] = target: Gal(b1-3)GalNAc(b1-3)Gal(a1-4)Gal(b1-4)Glc
# Summary of the method: as §1
# [2] = target: Gal(b1-3)GalNAc(b1-4)Gal(b1-4)Glc
# Summary of the method: as §1
# [3] = target: Gal(b1-3)GalNAc(b1-4)[Neu5Ac(a2-3)]Gal(b1-4)Glc
# Summary of the method: as §1
# Gal(b1-3)GlcNAc = target: Gal(b1-3)GlcNAc
# Summary of the method: as §1
# [4] = target: Gal(b1-3)GlcNAc(a1-3)Gal(b1-4)GlcNAc
# Summary of the method: as §1
# [5] = target: Gal(b1-3)GlcNAc(a1-6)Gal(b1-4)GlcNAc
# Summary of the method: as §1
# Gal(b1-3)GlcNAc(b1-2)Man = target: Gal(b1-3)GlcNAc(b1-2)Man
# Summary of the method: as §1
# [6] = target: Gal(b1-3)GlcNAc(b1-2)Man(a1-3)[Gal(b1-3)GlcNAc(b1-2)Man(a1-6)]Man(b1-4)GlcNAc(b1-4)GlcNAc
# Summary of the method: as §1
# [7] = target: Gal(b1-3)GlcNAc(b1-2)Man(a1-3)[Gal(b1-3)GlcNAc(b1-2)Man(a1-6)]Man(b1-4)GlcNAc(b1-4)[Fuc(a1-6)]GlcNAc
# Summary of the method: as §1
# [8] = target: Gal(b1-3)GlcNAc(b1-2)Man(a1-3)[GlcNAc(b1-4)][Gal(b1-3)GlcNAc(b1-2)Man(a1-6)]Man(b1-4)GlcNAc(b1-4)GlcNAc
# Summary of the method: as §1
# [9] = target: Gal(b1-3)GlcNAc(b1-2)[Gal(b1-3)GlcNAc(b1-6)]Man(a1-6)[Gal(b1-3)GlcNAc(b1-2)Man(a1-3)]Man(b1-4)GlcNAc(b1-4)GlcNAc
# Summary of the method: as §1
# [10] = target: Gal(b1-3)GlcNAc(b1-3)Gal(b1-3)GlcNAc
# Summary of the method: as §1
# [11] = target: Gal(b1-3)GlcNAc(b1-3)Gal(b1-4)Glc
# Summary of the method: as §1
# [12] = target: Gal(b1-3)GlcNAc(b1-3)Gal(b1-4)GlcNAc
# Summary of the method: as §1
# [13] = target: Gal(b1-3)GlcNAc(b1-3)Gal(b1-4)GlcNAc(b1-2)Man(a1-3)[Gal(b1-3)GlcNAc(b1-3)Gal(b1-4)GlcNAc(b1-2)Man(a1-6)]Man(b1-4)GlcNAc(b1-4)GlcNAc
# Summary of the method: as §1
# [14] = target: Gal(b1-3)GlcNAc(b1-3)Gal(b1-4)GlcNAc(b1-2)[Gal(b1-3)GlcNAc(b1-3)Gal(b1-4)GlcNAc(b1-6)]Man(a1-6)[Gal(b1-3)GlcNAc(b1-3)Gal(b1-4)GlcNAc(b1-2)Man(a1-3)]Man(b1-4)GlcNAc(b1-4)[Fuc(a1-6)]GlcNAc
# Summary of the method: as §1
# [15] = target: Gal(b1-3)GlcNAc(b1-3)Gal(b1-4)GlcNAc(b1-3)Gal(b1-4)GlcNAc(b1-2)[Gal(b1-3)GlcNAc(b1-3)Gal(b1-4)GlcNAc(b1-3)Gal(b1-4)GlcNAc(b1-6)]Man(a1-6)[Gal(b1-3)GlcNAc(b1-3)Gal(b1-4)GlcNAc(b1-3)Gal(b1-4)GlcNAc(b1-2)Man(a1-3)]Man(b1-4)GlcNAc(b1-4)[Fuc(a1-6)]GlcNAc
# Summary of the method: as §1
# [16] = target: Gal(b1-3)GlcNAc(b1-3)Gal(b1-4)GlcNAc(b1-6)[Gal(b1-3)GlcNAc(b1-3)]Gal(b1-4)Glc
# Summary of the method: as §1
# [17] = target: Gal(b1-3)GlcNAc(b1-3)Gal(b1-4)[Fuc(a1-3)]GlcNAc
# Summary of the method: as §1
# [18] = target: Gal(b1-3)GlcNAc(b1-3)Gal(b1-4)[Fuc(a1-3)]GlcNAc(b1-6)[Gal(b1-3)GlcNAc(b1-3)]Gal(b1-4)Glc
# Summary of the method: as §1
# [19] = target: Gal(b1-3)GlcNAc(b1-3)GalNAc
# Summary of the method: as §1
# [20] = target: Gal(b1-3)GlcNAc(b1-6)Gal(b1-4)GlcNAc
# Summary of the method: as §1
# [21] = target: Gal(b1-3)GlcNAc(b1-6)GalNAc
# Summary of the method: as §1
# [22] = target: Gal(b1-3)GlcNAc(b1-6)[Gal(b1-3)]GalNAc
# Summary of the method: as §1
# Gal(b1-3)GlcNAc6S = target: Gal(b1-3)GlcNAc6S
# Summary of the method: as §1
# [23] = target: Gal(b1-3)[Fuc(a1-4)]GlcNAc
# Summary of the method: as §1
# [24] = target: Gal(b1-3)[Fuc(a1-4)]GlcNAc(b1-2)Man
# Summary of the method: as §1
# [25] = target: Gal(b1-3)[Fuc(a1-4)]GlcNAc(b1-2)Man(a1-3)[Gal(b1-3)[Fuc(a1-4)]GlcNAc(b1-2)Man(a1-6)]Man(b1-4)GlcNAc(b1-4)[Fuc(a1-6)]GlcNAc
# Summary of the method: as §1
# [26] = target: Gal(b1-3)[Fuc(a1-4)]GlcNAc(b1-3)Gal(b1-3)[Fuc(a1-4)]GlcNAc
# Summary of the method: as §1
# [27] = target: Gal(b1-3)[Fuc(a1-4)]GlcNAc(b1-3)Gal(b1-4)[Fuc(a1-3)]GlcNAc
# Summary of the method: as §1
# [28] = target: Gal(b1-3)[Fuc(a1-4)]GlcNAc(b1-6)GalNAc
# Summary of the method: as §1
# [29] = target: Gal(b1-3)[GlcNAc(b1-6)]GalNAc
# Summary of the method: as §1
# [30] = target: Gal(b1-3)[Neu5Ac(a2-6)]GalNAc
# Summary of the method: as §1
# [31] = target: Gal(b1-3)[Neu5Ac(a2-6)]GlcNAc(b1-4)Gal(b1-4)Glc
# Summary of the method: as §1
# [32] = target: Gal(b1-3)[Neu5Ac(b2-6)]GalNAc
# Summary of the method: as §1
# Gal(b1-4)Gal = target: Gal(b1-4)Gal
# Summary of the method: as §1
# [33] = target: Gal(b1-4)GalNAc(a1-3)[Fuc(a1-2)]Gal(b1-4)GlcNAc
# Summary of the method: as §1
binder,measurement,setting,value
B1,glycan array binding signal (z-score),Gal(b1-3)GalNAc(b1-3)Gal,-0.009
same,glycan array binding signal (z-score),[1],-0.485
same,glycan array binding signal (z-score),[2],2.89
same,glycan array binding signal (z-score),[3],-0.095
same,glycan array binding signal (z-score),Gal(b1-3)GlcNAc,0.12
same,glycan array binding signal (z-score),[4],-0.509
same,glycan array binding signal (z-score),[5],-0.545
same,glycan array binding signal (z-score),Gal(b1-3)GlcNAc(b1-2)Man,-0.413
same,glycan array binding signal (z-score),[6],0.477
same,glycan array binding signal (z-score),[7],0.282
same,glycan array binding signal (z-score),[8],-0.114
same,glycan array binding signal (z-score),[9],-0.324
same,glycan array binding signal (z-score),[10],-0.145
same,glycan array binding signal (z-score),[11],-0.032
same,glycan array binding signal (z-score),[12],-0.405
same,glycan array binding signal (z-score),[13],1.29
same,glycan array binding signal (z-score),[14],0.235
same,glycan array binding signal (z-score),[15],1.41
same,glycan array binding signal (z-score),[16],0.059
same,glycan array binding signal (z-score),[17],-0.125
same,glycan array binding signal (z-score),[18],-0.541
same,glycan array binding signal (z-score),[19],-0.011
same,glycan array binding signal (z-score),[20],-0.189
same,glycan array binding signal (z-score),[21],0.408
same,glycan array binding signal (z-score),[22],0.112
same,glycan array binding signal (z-score),Gal(b1-3)GlcNAc6S,-0.975
same,glycan array binding signal (z-score),[23],-0.161
same,glycan array binding signal (z-score),[24],-0.603
same,glycan array binding signal (z-score),[25],-0.308
same,glycan array binding signal (z-score),[26],-0.258
same,glycan array binding signal (z-score),[27],-0.396
same,glycan array binding signal (z-score),[28],-0.229
same,glycan array binding signal (z-score),[29],0.174
same,glycan array binding signal (z-score),[30],-0.47
same,glycan array binding signal (z-score),[31],-0.062
same,glycan array binding signal (z-score),[32],-0.341
same,glycan array binding signal (z-score),Gal(b1-4)Gal,-0.449
same,glycan array binding signal (z-score),[33],0.383
